Results are given in words; binding and its absence hold for the method and conditions named. Binding seen in cells or lysates may run through a third protein. Some results given as binding are weak or reduced against the parent protein; the word gives no strength. Where a sequence is shown, tags or fusion partners need not be part of it.
Target: USF-1 overexpressed in 293FT cells (UniProt P22415)
Assay: co-IP; 293FT cells overexpressing Flag-tagged JMJD1C constructs and USF-1; IP with USF-1 antibody, immunoblot with anti-JMJD1C antibody

Amino acid sequences for entries named in this document (tags omitted).
UniProt P22415: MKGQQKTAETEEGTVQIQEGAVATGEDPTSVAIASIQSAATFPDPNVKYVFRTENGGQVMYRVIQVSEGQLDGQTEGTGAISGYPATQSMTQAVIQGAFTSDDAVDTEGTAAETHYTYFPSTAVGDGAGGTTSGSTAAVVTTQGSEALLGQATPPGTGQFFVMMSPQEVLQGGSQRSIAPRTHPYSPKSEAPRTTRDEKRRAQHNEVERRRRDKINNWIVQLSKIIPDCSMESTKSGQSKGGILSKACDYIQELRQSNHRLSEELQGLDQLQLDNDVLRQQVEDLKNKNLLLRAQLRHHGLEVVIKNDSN

binding: binds
B1: Flag-tagged JMJD1C (1-619) (domain or fragment, UniProt Q15652 1-619)
chain: MAVETRAELVGKRFLCVAVGDEARSERWESGRGWRSWRAGVIRAVSHRDSRNPDLAVYVEFDDLEWDKREWVKVYEDFSTFLVEYHLIWAKRNDPSQTQGSKSKQIQWPALTFKPLVERNIPSSVTAVEFLVDKQLDFLTEDSAFQPYQDDIDSLNPVLRDNPQLHEEVKVWVKEQKVQEIFMQGPYSLNGYRVRVYRQDSATQWFTGIITHHDLFTRTMIVMNDQVLEPQNVDPSMVQMTFLDDVVHSLLKGENIGITSRRRSRANQNVNAVHSHYTRAQANSPRPAMNSQAAVPKQNTHQQQQQRSIRPNKRKGSDSSIPDEEKMKEEKYDYISRGENPKGKNKHLMNKRRKPEEDEKKLNMKRLRTDNVSDFSESSDSENSNKRIIDNSSEQKPENELKNKNTSKINGEEGKPHNNEKAGEETLKNSQPPWDQIQEDKKHEEAEKRKSVDTQLQEDMIIHSSEQSTVSDHNSNDLLPQECNMDKTHTMELLPKEKFVSRPPTPKCVIDITNDTNLEKVAQENSSTFGLQTLQKMDPNVSDSKHSIANAKFLETAKKDSDQSWVSDVVKVDLTQSSVTNASSGNDHLNMEKEKYVSYISPLSAVSVMEDKLHKRSPP

From publication PMC7005700
